Data published in publication PMC4336329 (PLoS ONE, 2015).
In all, about 310,000 compounds went through this assay and about 2,200 (0.71%) showed an effect of 50% or more. The effect is printed as a negative number. This is one part of the list. Where a SMILES comes first, the peptide text is derived from it. [ ]: non-standard residue; d: D form. The star is where a group is joined. Tic = O=C(O)[C@@H]1Cc2ccccc2CN1; Boc = CC(C)(C)OC(=O)*

molecular target: human ether-à-go-go-related gene (hERG) potassium channel (human, UniProt Q12809); experiment: primary screen, population patch clamp on CHO cells stably expressing hERG
Sequence (Q12809 whole entry, looked up): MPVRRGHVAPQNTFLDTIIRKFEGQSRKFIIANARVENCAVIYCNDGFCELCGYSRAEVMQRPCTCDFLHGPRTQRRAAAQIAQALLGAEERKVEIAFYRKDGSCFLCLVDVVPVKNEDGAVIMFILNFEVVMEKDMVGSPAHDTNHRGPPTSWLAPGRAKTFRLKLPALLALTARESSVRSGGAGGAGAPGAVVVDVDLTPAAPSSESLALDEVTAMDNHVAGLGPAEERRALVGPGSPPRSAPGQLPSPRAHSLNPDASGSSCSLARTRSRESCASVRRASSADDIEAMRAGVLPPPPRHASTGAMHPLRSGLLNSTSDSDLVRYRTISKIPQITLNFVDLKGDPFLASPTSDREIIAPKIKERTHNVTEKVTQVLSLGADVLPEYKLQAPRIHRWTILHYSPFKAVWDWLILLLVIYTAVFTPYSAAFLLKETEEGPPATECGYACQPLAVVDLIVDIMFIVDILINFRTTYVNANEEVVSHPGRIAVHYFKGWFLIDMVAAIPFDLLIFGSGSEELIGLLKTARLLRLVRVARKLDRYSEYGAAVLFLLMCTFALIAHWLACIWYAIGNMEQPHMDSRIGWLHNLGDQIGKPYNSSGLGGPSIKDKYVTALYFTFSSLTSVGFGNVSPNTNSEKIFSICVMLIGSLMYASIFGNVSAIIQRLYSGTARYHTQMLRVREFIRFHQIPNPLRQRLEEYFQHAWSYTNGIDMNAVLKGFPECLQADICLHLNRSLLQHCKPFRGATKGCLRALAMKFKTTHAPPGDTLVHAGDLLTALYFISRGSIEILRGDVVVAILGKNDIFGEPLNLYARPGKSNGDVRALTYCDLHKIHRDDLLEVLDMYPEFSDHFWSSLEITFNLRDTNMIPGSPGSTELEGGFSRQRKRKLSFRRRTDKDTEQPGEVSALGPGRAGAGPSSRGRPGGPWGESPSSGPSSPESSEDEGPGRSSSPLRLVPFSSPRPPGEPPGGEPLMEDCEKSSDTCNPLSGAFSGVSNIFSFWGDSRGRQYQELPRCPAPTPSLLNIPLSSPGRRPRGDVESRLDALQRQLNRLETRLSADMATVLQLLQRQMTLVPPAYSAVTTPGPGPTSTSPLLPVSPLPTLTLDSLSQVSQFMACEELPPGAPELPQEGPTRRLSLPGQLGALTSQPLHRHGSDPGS

First: N#Cc1c2n(c(=S)n(-c3ccccn3)c1=O)CCCCC2
Second: Cc1cccc(N2C(=O)CC(N3CCN(c4ccccn4)CC3)C2=O)c1 (stereo not shown)
The “hERG current change (%, negative = inhibition) at 1uM” value of the first is lower: 2.42% for the first, 15.8% for the second.

Compared with COc1ccccc1OCC(=O)NNC(=O)Nc1ccc(Cl)cc1, COc1ccccc1NC(=O)Cc1c(F)cccc1Cl is higher in “hERG current change (%, negative = inhibition) at 1uM” value: 8.09% for the first, 15.9% for the second.

First: Cc1cc(=O)oc(C)c1C(=O)NCc1ccccc1
Second: CC(=O)Oc1ccc2cc(-c3ccccc3)c(=O)oc2c1
The “hERG current change (%, negative = inhibition) at 1uM” value of the first is lower: 8.1% for the first, 17.6% for the second.

First: CCc1cc(=O)oc2c(C)c(O)c(CN3CCCCC3)cc12
Second: CCCc1cc(=O)oc2cc(OCC(=O)NCCCN3CCCC3=O)ccc12
The “hERG current change (%, negative = inhibition) at 1uM” value of the first is lower: 3.51% for the first, 17% for the second.

Going from Nc1nc(-c2cccnc2)nn1C(=O)CCc1ccccc1 to NC(Cc1ccccc1)c1nc(-c2ccccc2)no1 (stereo not shown), the “hERG current change (%, negative = inhibition) at 1uM” value falls from 4.3% to 3.39%.

Going from Cc1ccc(S(=O)(=O)NC(C)C(=O)N2CCOCCOCCOCC2)cc1 (stereo not shown) to Cc1ccc(NC(=O)C(c2ccccc2)N2CCN(CC(=O)N3CCOCC3)CC2)cc1 (stereo not shown), the “hERG current change (%, negative = inhibition) at 1uM” value falls from 8.66% to -8.48%.

Compared with CC(C)NC(=O)C1CCN(C2CCN(Cc3nc(C(C)C)cs3)CC2)CC1, Cc1ccccc1-c1nc(CN2CCC(C(=O)O)CC2)c(C)o1 is higher in “hERG current change (%, negative = inhibition) at 1uM” value: -15.6% for the first, -1.68% for the second.

Compared with COCCN(Cc1cc2c(C)cc(C)cc2nc1Cl)C(=O)c1ccccc1F, COCCNC(=O)c1onc(CSc2cc(C)cc(C)c2)c1C(=O)NCCOC is lower in “hERG current change (%, negative = inhibition) at 1uM” value: 14.5% for the first, 6.78% for the second.

First: O=C1NCN(c2ccccc2)C12CCN(CCCC(c1ccc(F)cc1)c1ccc(F)cc1)CC2
Second: Fc1ccc(C(CCCn2nnc(-c3cccnc3)n2)c2ccc(F)cc2)cc1
The “hERG current change (%, negative = inhibition) at 1uM” value of the first is lower: -36.2% for the first, 9.02% for the second.

Compared with O=C1CCCN1CCCNC(=S)Nc1cccc2ccccc12, Cc1cccc2cc3c(N)c(C(=O)N4CCCc5ccccc54)sc3nc12 is lower in “hERG current change (%, negative = inhibition) at 1uM” value: 15.5% for the first, 6.2% for the second.

Going from O=C(O)CCC1=C2c3ccccc3CCN2C(=O)CC1 to CCOC(=O)CNC(=O)CN1C(=O)CCSc2ccccc21, the “hERG current change (%, negative = inhibition) at 1uM” value rises from 7.74% to 14.3%.

Compared with O=C(Nc1ccc2nc(C3CC3)n(Cc3ccccc3)c(=O)c2c1)C1CC1, CC1(O)c2ccccc2C(=O)N1Cc1ccccc1 (stereo not shown) is lower in “hERG current change (%, negative = inhibition) at 1uM” value: -2.74% for the first, -7.37% for the second.

First: CC(=O)c1sc(NC(=O)c2oc3ccc(F)cc3c2C)nc1C
Second: CCOC(=O)c1cc2sc(C)cc2n1CC(=O)Nc1cccc(C)c1C
The “hERG current change (%, negative = inhibition) at 1uM” value of the first is higher: 6.91% for the first, -12.8% for the second.

First: COC(=O)NNC(=S)Nc1cc(OC)ccc1OC
Second: COc1ccc(NC(=O)C(NS(=O)(=O)c2cccs2)C(C)C)cc1Cl (stereo not shown)
The “hERG current change (%, negative = inhibition) at 1uM” value of the first is higher: -2.88% for the first, -5.41% for the second.

Compared with COc1ccc(C(=O)N2CCc3ccccc32)cc1S(=O)(=O)N1CCOCC1, COc1ccc(NS(=O)(=O)c2cc(NC(=O)CC3CCCC3)ccc2N2CCOCC2)cc1 is higher in “hERG current change (%, negative = inhibition) at 1uM” value: -4.94% for the first, 2.38% for the second.

Going from Cc1cccc(Cc2nnc(CCC(=O)N3CCCCC3c3nccs3)o2)c1 (stereo not shown) to O=C(NCc1nnc(SCC(=O)N2CCCCC2)o1)c1c(F)cccc1Cl, the “hERG current change (%, negative = inhibition) at 1uM” value rises from 5.24% to 14.4%.

Going from N#CC1(c2ccccc2)CCC(=O)N1Cc1ccccc1 (stereo not shown) to O=C(CSc1nccn1Cc1ccccc1)Nc1ccccc1, the “hERG current change (%, negative = inhibition) at 1uM” value falls from 15.8% to 14.5%.

Compared with O=C(CCNc1ccc(Cc2ccncc2)cc1)c1ccc([N+](=O)[O-])cc1, Cc1ccc(C(=O)Nc2cccc3ncccc23)cc1[N+](=O)[O-] is higher in “hERG current change (%, negative = inhibition) at 1uM” value: 6.69% for the first, 7.37% for the second.

Going from COc1ccc(C(OC(=O)c2ccco2)C(=O)NC2CCCCC2)cc1OC (stereo not shown) to O=C(NC1CCCCC1)C(c1ccc(O)c(O)c1)N(C(=O)Cn1nnc2ccccc21)c1cccc(O)c1 (stereo not shown), the “hERG current change (%, negative = inhibition) at 1uM” value rises from 15.1% to 16.1%.

Compared with CC1CC(C)CN(C(=O)COC(=O)CCc2nc3ccccc3c(=O)[nH]2)C1 (stereo not shown), CC(C)OC(=O)CCC(=O)Nc1nc2ccccc2s1 is lower in “hERG current change (%, negative = inhibition) at 1uM” value: 11.3% for the first, 9.08% for the second.

Going from CC(=O)N1c2ccc(S(=O)(=O)NCCC(=O)Nc3ncccc3C)cc2CC1C (stereo not shown) to COc1cccc(CNC(=O)CCNS(=O)(=O)c2ccc3c(c2)oc(=O)n3C)c1, the “hERG current change (%, negative = inhibition) at 1uM” value rises from 10.3% to 14.1%.

Going from CN(C)/C=N/N(C)c1ncccc1[N+](=O)[O-] to O=C(/C=C/c1cccc(Cl)c1)c1ccc([N+](=O)[O-])o1, the “hERG current change (%, negative = inhibition) at 1uM” value falls from 11.6% to -5.37%.

First: CCNC(=S)NS(=O)(=O)c1ccc(C)cc1
Second: Cc1cc(C)n(CCNS(=O)(=O)c2ccc(C)c(C)c2)n1
The “hERG current change (%, negative = inhibition) at 1uM” value of the first is lower: 0.48% for the first, 13.2% for the second.

First: CN(CC(=O)N1CCN(Cc2ccccc2)CC1)C(=O)Cc1cccc2ccccc12
Second: COc1cccc(CN2CCN(C(=O)c3ccc(-c4ccccc4)cc3)CC2)c1OC.O=C(O)C(=O)O
The “hERG current change (%, negative = inhibition) at 1uM” value of the first is lower: 1.13% for the first, 7.67% for the second.

Going from CN1C(=O)N(c2ccc(Cl)cc2)C(C)(O)CC1(C)C (stereo not shown) to COC(=O)C1=C(C)N(C)C(=O)NC1c1ccc(C)cc1 (stereo not shown), the “hERG current change (%, negative = inhibition) at 1uM” value rises from 2.58% to 4.16%.

Going from CCc1ccc2[nH]c(=O)c(C(c3nnnn3Cc3ccc(OC)cc3)N3CCOCC3)cc2c1 (stereo not shown) to COc1ccc(CNC(=O)C(=O)NCC2OCCN2S(=O)(=O)c2ccc(F)cc2)cc1 (stereo not shown), the “hERG current change (%, negative = inhibition) at 1uM” value rises from -13% to 10.7%.

Going from O=C(CN1C(=O)C2CC=CCC2C1=O)Nc1ccc(OC(F)(F)F)cc1 (stereo not shown) to O=C(COC(=O)C1COc2ccccc2O1)Nc1ccc2c(c1)CCC2 (stereo not shown), the “hERG current change (%, negative = inhibition) at 1uM” value rises from 2.45% to 20.6%.

First: CC(=O)Nc1ccc(S(=O)(=O)Nc2nc3ccccc3nc2Nc2ccc(O)c(C(=O)O)c2)cc1
Second: O=C(/C=C/Nc1ccc(S(=O)(=O)Nc2ncccn2)cc1)c1cccs1
The “hERG current change (%, negative = inhibition) at 1uM” value of the first is higher: 12.6% for the first, 11% for the second.

Going from O=C1CC(c2ccco2)CC2=C1C1c3ccccc3C(=O)N1c1ccccc1N2 (stereo not shown) to O=C(Nc1ccccc1Cl)N(Cc1nc2ccccc2c(=O)[nH]1)Cc1cccs1, the “hERG current change (%, negative = inhibition) at 1uM” value rises from 2.82% to 5.09%.

First: Fc1ccc(-c2csc(NC(=S)Nc3ccccc3)n2)cc1
Second: CCN(CC)C(=O)Oc1ccc2c(=O)c(-c3ccccc3)coc2c1
The “hERG current change (%, negative = inhibition) at 1uM” value of the first is higher: 13% for the first, -3.74% for the second.

First: CCOc1ccc(C(=O)N/N=C(/C)C2C(=O)c3ccccc3C2=O)cc1
Second: COc1ccc(C(=O)NCC(=O)N/N=C/c2cn(C)c3ccccc23)cc1OC
The “hERG current change (%, negative = inhibition) at 1uM” value of the first is higher: 13% for the first, 10.1% for the second.

First: c1ccc(-n2nnnc2NCCCN2CCOCC2)cc1
Second: Cc1nn(-c2ccccc2)c(C)c1C(=O)NNC(=O)C(F)(F)F
The “hERG current change (%, negative = inhibition) at 1uM” value of the first is lower: 6.03% for the first, 10.4% for the second.

Going from O=C(NCCO)c1scc2c1OCCO2 to CC1=C(C(=O)OCCCBr)C(c2ccc3c(c2)OCO3)NC(=O)N1 (stereo not shown), the “hERG current change (%, negative = inhibition) at 1uM” value falls from 15.9% to 9.35%.

Going from CC(C)OP(=O)(OC(C)C)C(O)c1cccnc1 (stereo not shown) to Cc1ccc(OCc2nnc(NC(=O)OCC(C)C)s2)cc1, the “hERG current change (%, negative = inhibition) at 1uM” value rises from 15.1% to 17.9%.

Compared with CC(OC(=O)Nc1cccc(Cl)c1)C(=O)O (stereo not shown), C=CCS(=O)(=O)N1CCCC(C(=O)c2cccc(Cl)c2)C1 (stereo not shown) is lower in “hERG current change (%, negative = inhibition) at 1uM” value: 15.5% for the first, 14.2% for the second.

First: COc1cccc(CN2CCN(Cc3cc(OC)c(OC)cc3OC)CC2)c1.O=C(O)C(=O)O
Second: COc1cc2[nH]c(=O)n(CCC(=O)N3CCc4ccccc4C3)c(=O)c2cc1OC
The “hERG current change (%, negative = inhibition) at 1uM” value of the first is lower: -11.4% for the first, 8.72% for the second.

Going from Cc1ccc(S(=O)(=O)N(C)C)cc1NC(=O)COC(=O)C1CCN(S(=O)(=O)c2cccs2)CC1 to COc1ccc(N2CCN(S(=O)(=O)c3c(C)nc4sccn4c3=O)CC2)cc1, the “hERG current change (%, negative = inhibition) at 1uM” value rises from -58.4% to 9.52%.

Going from CCN(CC)CCN1C(=O)C(=O)/C(=C(/O)c2ccc3c(c2)CC(C)O3)C1c1ccc(OC)cc1 (stereo not shown) to COC(=O)[C@@]1(Cc2ccc(F)cc2)[C@H]2c3cc(C(=O)N4CCCC4)n(CCc4ccccn4)c3C[C@H]2CN1C(=O)c1ccccc1, the “hERG current change (%, negative = inhibition) at 1uM” value falls from 9.43% to -3.4%.

Compared with CCn1c(SCc2cccc(F)c2)nc2c(c1=O)SCC2, CCN1CCN(C(=O)Cn2nc(C)n3c(cc4c(OC)cccc43)c2=O)CC1 is higher in “hERG current change (%, negative = inhibition) at 1uM” value: 0.51% for the first, 9.75% for the second.

Going from Cc1cc(C(C#N)c2ccccc2F)n2ncnc2n1 (stereo not shown) to C/C(=N\Nc1nccnc1Cl)c1ccc(Br)cc1, the “hERG current change (%, negative = inhibition) at 1uM” value falls from 13.7% to 4.33%.

Going from COc1ccc(C=Nc2cccc3c(=O)[nH][nH]c(=O)c23)c2ccccc12 to O=C(Cc1ccc(Cl)c(Cl)c1)Nc1ccc2[nH]c(=O)[nH]c2c1, the “hERG current change (%, negative = inhibition) at 1uM” value falls from 4.8% to 4.75%.

Compared with COc1ccc(-c2[nH]ncc2/C=C(\C#N)C(=O)NC2CC2)cc1, CC(C)(C)OC(=O)N1Cc2ccccc2C[C@H]1C(=O)N1CCC[C@H]1C(=O)O (Boc-[Tic]-Pro-OH) is higher in “hERG current change (%, negative = inhibition) at 1uM” value: 8.58% for the first, 12.1% for the second.

First: Nn1c(-c2cccs2)nc2sc3c(c2c1=O)CCCC3
Second: Clc1ccc(Oc2nc(N3CCOCC3)nc(N3CCOCC3)n2)c(C2CCCCC2)c1
The “hERG current change (%, negative = inhibition) at 1uM” value of the first is lower: 3.04% for the first, 10.6% for the second.

First: CCOC(=O)C1(CCOc2ccccc2)CCN(CC=C(C)C)CC1
Second: OCCCNC(=S)NC1CCCC1
The “hERG current change (%, negative = inhibition) at 1uM” value of the first is lower: -17.8% for the first, 12.9% for the second.
